Measured values: PubChem BioAssay AID902 (National Center for Advancing Translational Sciences (NCATS), 2007)
“And” between values parts separate entries of the source, which are not always exact repeats. Equal values may be shown once. Screen size: about 130,000 compounds; about 1,900 (1.5%) were called active. The inconclusive results got no clear call from the source; some entries with a clear call stand among them for comparison. Calls follow the shape of the dose curve; as a rule, active = well fitted cell-killing curve with a large enough effect; inconclusive = small, poorly fitted or top-dose-only effect; inactive = no such curve, though single readings can be large or run the other way. Potencies beside an inconclusive call are fits to weak or partial responses and may not hold up.

Assay: qHTS Screen for Compounds that Selectively Target Cancer Cells with p53 Mutations: Cytotoxicity of p53ts Cells at the Nonpermissive Temperature; also: nearly all actives have a fitted effect of over 55% in size
Settings: H1299-p53A138V viability at 39C, ATP luminescence, 24 h; activity change, negative = cell killing: at 46.1 µM (top of the series)
% is scaled to controls: 0 for no effect and ±100 for the full control effect; potency is read from the fitted curve at half-maximal effect; tags tell the direction and shape of the fitted curve.

SMILES | Potency | activity change, negative = cell killing
CCOc1ccccc1CC1C(=O)Nc2ccc(Br)cc21 (stereo not drawn) | inconclusive: 15.8 µM [cytotoxic, single point] | 
CCOc1cc(CNCCc2ccccc2)ccc1OCC(=O)NC(C)(C)C | inconclusive: 14.1 µM [cytotoxic, partial curve] | 
COc1ccccc1-c1cc(C(=O)N2CCCCC2C)no1 (stereo not drawn) |  | inactive: -4.92%
O=C(NCc1ccc(Cl)cc1)C1CCCN(c2nc3ccccc3n3cccc23)C1 (stereo not drawn) | inconclusive: 20 µM [cytotoxic, single point] | 
Cc1cc(N2CCCCC2)nc2ccc(NC(=O)/C=C/c3ccccc3Cl)cc12 | inconclusive: 1.58 µM [cytotoxic, partial curve] | 
COC(=O)c1c(-c2ccc(Cl)cc2)noc1N1CCN(c2cccc(C(F)(F)F)c2)CC1 | inconclusive: 10 µM [cytotoxic, partial curve, poor fit] | 
Cc1cccc(-n2ncc3c(NC4CCCC4)ncnc32)c1 | active: 7.94 µM | 
Nc1nc(Cl)nc2c1ncn2[C@@H]1O[C@@H](CO)[C@@H](O)[C@H]1O | active: 12.6 µM | 
CCc1ccc(Nc2nc(N)nc(CSc3nc4ccccc4s3)n2)cc1 | inconclusive: 12.6 µM [cytotoxic, partial curve, poor fit] and inconclusive: 25.1 µM [cytotoxic, single point] | 
Nc1ccc(CCc2nc3ccccc3o2)cc1 | inconclusive: 12.6 µM [cytotoxic, partial curve] | 
CCOCc1cc(CN2CCN(c3cccc(Cl)c3)CC2)c(O)c2ncccc12 | active: 3.16 µM | 
CCOC(=O)c1sc(NC(=O)c2cc(-c3ccc(F)cc3)on2)c(C(=O)OCC)c1C |  | inactive: 21.4%
Cc1c(CC(=O)NCCc2ccc(Cl)cc2)c(=O)oc2c(C)c3occ(C(C)(C)C)c3cc12 | inconclusive: 20 µM [cytotoxic, single point] | 
COc1ccc(NC(=O)c2ccc3c(=O)n4nc(Nc5cccc(Cl)c5C)sc4nc3c2)cc1 | inconclusive: 3.16 µM [cytotoxic, full curve] | 
C=Cc1ccc(Cn2c(C(=O)O)c(CNCc3ccccc3)c3ccc(C)cc32)cc1 | active: 15.8 µM | 
C=C[C@](C)(O)CCC1C(=C)CC(O)C2C(C)(C)CCCC12C (stereo partly drawn) | inconclusive: 20 µM [cytotoxic, single point] | 
CC(=O)Nc1ccc(NC(=O)c2oc3ccc4c(c3c2C)C(=O)CC(C)(C)O4)cc1 | inconclusive: 2.51 µM [cytotoxic, partial curve] | 
Nc1c(C(=O)Nc2ccc(C(=O)O)cc2)sc2nc3c(cc12)CCCC3 | inconclusive: 0.562 µM [cytotoxic, full curve, poor fit] | 
